No constants are given. Whether binding was seen depends on the method and setting. For part of these data: Binding seen in cells or lysates may run through a third protein. Some binding calls cover weakened binding; strength is not graded here. For part of these data: Tags and fused reporters may be left off the sequences shown.
Experiments:
[1] = target: T1, Myc-tagged human CLCC1 (human) (UniProt Q96S66); test: co-IP
T1 sequence: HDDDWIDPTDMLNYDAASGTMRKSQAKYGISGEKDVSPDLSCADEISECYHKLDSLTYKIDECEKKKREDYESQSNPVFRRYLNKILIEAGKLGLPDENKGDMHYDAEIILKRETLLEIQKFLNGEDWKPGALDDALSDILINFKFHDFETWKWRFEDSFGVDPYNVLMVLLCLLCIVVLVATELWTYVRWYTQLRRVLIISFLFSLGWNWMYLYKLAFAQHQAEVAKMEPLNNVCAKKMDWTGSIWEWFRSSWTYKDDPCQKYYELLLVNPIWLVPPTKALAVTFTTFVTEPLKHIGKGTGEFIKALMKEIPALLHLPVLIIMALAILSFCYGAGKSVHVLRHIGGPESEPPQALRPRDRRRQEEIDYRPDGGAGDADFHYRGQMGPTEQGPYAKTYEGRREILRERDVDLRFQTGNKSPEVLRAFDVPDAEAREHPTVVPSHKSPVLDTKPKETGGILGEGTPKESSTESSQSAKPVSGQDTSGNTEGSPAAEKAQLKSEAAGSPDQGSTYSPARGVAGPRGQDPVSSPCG

[2] = target: T2, human CLCC1 with a C-terminal Strep-FLAG-Strep tag (human) (UniProt Q96S66); test: co-IP
T2 sequence: T1 sequence

[3] = target: Danio rerio Clcc1 with a C-terminal Strep-FLAG-Strep tag (Danio rerio); test: co-IP
[4] = target: EGFP-tagged SARS-CoV-2 ORF3a expressed in mouse brain (SARS-CoV-2) (UniProt P0DTC3); test: co-IP
[5] = target: SARS-CoV-2 ORF3a expressed from trVLP infection (SARS-CoV-2) (UniProt P0DTC3); test: co-IP
[6] = target: FLAG-tagged BtCoV HKU3 ORF3a (bat coronavirus BtCoV HKU3-1) (UniProt Q3LZX0); test: co-IP
[7] = target: FLAG-tagged SARS-CoV-2 ORF3a (SARS-CoV-2) (UniProt P0DTC3); test: co-IP
[8] = target: GFP-tagged SARS-CoV-2 ORF3a (SARS-CoV-2) (UniProt P0DTC3); test: pull-down; both purified

FLAG-tagged SARS-CoV-2 ORF3a (from UniProt P0DTC3 1-275)
binding [1]: binds
binding [2]: binds

GFP-tagged SARS-CoV-2 ORF3a (from UniProt P0DTC3 1-275)
binding [3]: no binding
binding [2]: binds

B1: endogenous CLCC1 of mouse brain (protein, UniProt Q99LI2 19-539)
chain: HDDDWIDPTDMLNYDAASGTMRKSQVRSGTSEKKEVSPDSSEAEELSDCLHRLDSLTHKVDSCEKKKMKDYESQSNPVFRRYLNKILIEAGKLGLPDENKVEMRYDAEILLSRQTLLEIQKFLSGEEWKPGALDDALSDILINFKCHDSEAWKWQFEDYFGVDPYNVFMVLLCLLCLVVLVATELWTYVRWYTQMKRIFIISFLLSLAWNWIYLYKMAFAQHQANIAGMEPFDNLCAKKMDWTGSLWEWFTSSWTYKDDPCQKYYELLIVNPIWLVPPTKALAITFTNFVTEPLKHIGKGAGEFIKALMKEIPVLLQIPVLAILALAVLSFCYGAGRSVPMLRHFGGPDREPPRALEPDDRRRQKGLDYRLHGGAGDADFSYRGPAGSIEQGPYDKMHASKRDALRQRFHSGNKSPEVLRAFDLPDTEAQEHPEVVPSHKSPIMNTNLETGELPGESTPTEYSQSAKDVSGQVPSAGKSSPTVDKAQLKTDSECSPPGGCPPSKEAAVAAHGTEPVSSPCG
binding [4]: binds

B2: endogenous CLCC1 of Caco-2 cells (protein, UniProt Q96S66 19-551)
chain: T1 sequence
binding [5]: binds

B3: endogenous CLCC1 of 293FT cells (protein, UniProt Q96S66 19-551)
chain: T1 sequence
binding [6]: binds
binding [7]: binds

B4: His10-tagged recombinant CLCC1 (protein, UniProt Q96S66 19-551)
chain: T1 sequence
binding [8]: binds
